According to the supplement of paper PMC3334620:
Over roughly 33,000 sequences, “E-score (-0.5 to 0.5)” has its median near -0.053; the highest 2% begin near 0.37. Some of the results follow.

Target: Hap1 (UniProt P0CE41)
Test: PBM E-score (8-mer binding enrichment) (E-score (-0.5 to 0.5)); higher = stronger / more preferred TF binding; most listed sequences are background and not binding sites
Conditions: protein concentration: 200 nM; construct: GST-DNA-binding domain
How it was run: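 Bound GST-tagged yeast transcription factors, applied at about 100-200 nM to double-stranded universal all-10-mer Agilent arrays, were detected with fluorescent anti-GST. Scans were normalised with masliner. A modified Wilcoxon-Mann-Whitney statistic, the E-score, was assigned to each ungapped eight-base word pooled with its reverse complement by the Universal PBM Analysis Suite.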

Chain of UniProt P0CE41 (P0CE41 whole entry): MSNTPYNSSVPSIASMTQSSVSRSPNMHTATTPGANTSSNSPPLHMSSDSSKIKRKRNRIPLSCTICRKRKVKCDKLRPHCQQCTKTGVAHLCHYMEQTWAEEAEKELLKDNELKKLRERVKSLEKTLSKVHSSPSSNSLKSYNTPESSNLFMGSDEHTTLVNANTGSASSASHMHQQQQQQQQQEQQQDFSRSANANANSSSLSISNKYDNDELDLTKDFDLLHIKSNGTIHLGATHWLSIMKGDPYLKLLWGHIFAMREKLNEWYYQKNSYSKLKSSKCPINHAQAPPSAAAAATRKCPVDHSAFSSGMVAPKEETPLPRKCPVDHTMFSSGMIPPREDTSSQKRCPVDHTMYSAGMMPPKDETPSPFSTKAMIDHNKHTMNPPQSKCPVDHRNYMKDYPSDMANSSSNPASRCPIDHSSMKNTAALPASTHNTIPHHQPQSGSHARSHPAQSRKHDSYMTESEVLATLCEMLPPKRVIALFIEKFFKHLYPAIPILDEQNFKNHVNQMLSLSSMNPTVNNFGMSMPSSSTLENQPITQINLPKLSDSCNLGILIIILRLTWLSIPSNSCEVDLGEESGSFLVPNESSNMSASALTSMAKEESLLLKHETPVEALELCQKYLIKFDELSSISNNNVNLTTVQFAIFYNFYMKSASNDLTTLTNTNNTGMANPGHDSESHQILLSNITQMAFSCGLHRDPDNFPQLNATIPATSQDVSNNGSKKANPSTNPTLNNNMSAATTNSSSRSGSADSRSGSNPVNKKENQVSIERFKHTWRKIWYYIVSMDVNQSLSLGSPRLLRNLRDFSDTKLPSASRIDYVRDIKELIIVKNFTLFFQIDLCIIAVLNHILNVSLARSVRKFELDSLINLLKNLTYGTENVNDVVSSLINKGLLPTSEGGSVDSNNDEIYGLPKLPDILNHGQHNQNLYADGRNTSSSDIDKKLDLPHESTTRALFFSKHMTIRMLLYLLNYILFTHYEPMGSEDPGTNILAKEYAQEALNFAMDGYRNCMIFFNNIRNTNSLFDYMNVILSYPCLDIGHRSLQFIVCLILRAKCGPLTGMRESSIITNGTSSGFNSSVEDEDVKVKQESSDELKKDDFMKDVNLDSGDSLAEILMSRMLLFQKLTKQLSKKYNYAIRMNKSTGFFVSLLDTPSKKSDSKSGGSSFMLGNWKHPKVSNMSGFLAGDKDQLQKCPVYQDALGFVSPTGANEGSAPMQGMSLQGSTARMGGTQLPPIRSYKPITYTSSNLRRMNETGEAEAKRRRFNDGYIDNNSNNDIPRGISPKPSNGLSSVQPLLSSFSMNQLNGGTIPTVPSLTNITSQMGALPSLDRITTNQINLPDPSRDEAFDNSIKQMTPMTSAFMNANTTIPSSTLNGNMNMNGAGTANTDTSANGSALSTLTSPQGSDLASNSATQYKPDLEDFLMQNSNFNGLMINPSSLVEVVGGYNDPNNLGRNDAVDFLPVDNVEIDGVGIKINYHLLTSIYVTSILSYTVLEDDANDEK

Sequence | PBM E-score
CTGCGAAA | -0.217
CGATCACC | 0.106
ACGACTCT | -0.256
AGCTGACT | -0.127
CTGTAGTA | -0.0711
GACTACCA | -0.143
CCGGGTAA | 0.342
GAGGCTGC | -0.183
CGAGCCCC | 0.114
CGATACCA | 0.0846
ACATTCTA | -0.136
AACCGTGC | -0.0215
CCAATAGA | -0.15
CGGTAGCC | 0.143
CTGACTAA | -0.0139
GGGTATAA | 0.287
CTGTATCA | -0.251
GAAGAATC | 0.196
CACTCTGA | -0.178
CAGTTCGA | -0.156
ATTGTTGG | 0.0512
AGTGGGAA | -0.0192
ATTGCTAA | -0.114
CACATTAG | -0.185
CGGAACTA | 0.436

Sequence | PBM E-score
AGACGACT | -0.234
GGATATCC | 0.236
GAATATCC | 0.118
GATCCGCC | 0.29
ACTGTGGA | -0.259
AGGGAGGA | -0.294
ATTCCCTG | -0.0487
CGCCTGAC | 0.0343
GTCGAGCA | -0.3
GTAGCTAC | -0.221
AATGGTCC | 0.143
CCGCCTAG | -0.0794
AGCAGTAG | -0.24
AAGCGCAA | 0.0371
AGACCAGA | -0.267
ATGGAGTC | -0.104
GAACTGCC | -0.0156
GACCGATA | 0.434
ATCTGCGA | 0.00883
CCCGATCG | 0.334
ACGCAACT | 0.064
CTTGGATC | -0.127
CGGTGGAA | 0.199
GAAGATAA | 0.0895
CAAGTCAG | -0.19

Sequence | PBM E-score
AACTTAAG | -0.0454
AGGGAAAG | -0.0867
AGAGACAT | -0.184
AGTGACGA | -0.125
AGAGTTTA | 0.00193
CACGTCCG | 0.333
GGGGTTAA | 0.386
CGGACGGA | 0.397
AACCGGAT | 0.286
ATGTTCCG | 0.287
GATCATCC | 0.26
ACAATTAG | -0.221
CCCGCACC | 0.151
CTCAAATA | -0.18
GGTAAGAC | -0.0502
ACAAGGCC | -0.116
CTTATACA | -0.18
AGCTGGAT | -0.176
CTGATTTA | 0.067
ACCAATCC | 0.152
AAACTGGT | -0.0861
CCTTGAAC | -0.1
GACACTGA | 0.0247
GAGTGTAC | -0.096
GTAGCACA | -0.18

Sequence | PBM E-score
GGGCAACA | 0.0459
CACAAGCA | -0.283
GATGATAA | -0.0336
AACTGAGA | -0.226
ATTCAAGG | -0.268
CCCAATCG | 0.111
ACCAGCGT | -0.266
AGCGTACA | -0.382
ATCATGGG | -0.0614
AGGCCCGG | 0.288
CCCCCGAG | 0.308
AGAAGTTA | -0.239
AAGGGCCC | -0.00529
ATCACGCG | 0.176
AAAAGGTG | -0.144
ATACTAGG | 0.00469
AGGTTAGG | -0.116
AACAAAAA | -0.129
ACCCAGGT | -0.165
TAGCACCA | -0.14
GCGAGTCA | -0.0298
CGCAACTC | 0.0922
CTTGCGAA | 0.0558
ACTGCGTC | -0.293
ATCGTCGG | 0.301

Sequence | PBM E-score
ACTCGTTC | -0.197
ACGGAAAT | 0.432
GAACGCAA | -0.0397
CCAGCGAC | -0.229
CATGCAAC | -0.0671
AAAAGACC | -0.0306
AGTATAGG | -0.0933
CTAATAAC | 0.0104
CTTGCATC | -0.143
ATGCCGCC | 0.195
CTCGCGCC | 0.106
AGCGACTA | -0.298
CAAGGCTA | -0.0569
ACATCCTA | -0.222
ACTCTTTA | -0.181
AATGCGTA | -0.00981
GTGCGTGA | -0.0213
CTAGTGTC | -0.0851
AGGACGTG | -0.239
GTTCTCGA | -0.169
AATTAATT | -0.205
GTTCGATA | 0.0968
TAAGTCGA | -0.22
ATCCGGGC | 0.364
AATCCCCG | 0.403

Sequence | PBM E-score
AGGCCCCC | -0.0231
CTGGATAA | 0.037
ACTTATGA | -0.0989
GCTTTTTA | 0.0123
ACGTGAGA | -0.195
AAAGGTCC | 0.0478
ACCTTGGA | -0.148
AGAGAGTG | -0.238
GAGTTGGC | 0.023
CCGGAAGA | 0.365
AGTAAGGC | 0.0483
AAACCATC | 0.157
AACCGACG | 0.266
CCCCAATA | -0.29
AGTTCTAA | -0.0553
CATACGCC | -0.0505
ACCACGCA | -0.302
AGTGACTC | -0.193
GCAGCAGC | -0.238
ACGTACAG | -0.0568
ACGACGCG | 0.0318
CACTGTGG | -0.221
GCACATCA | -0.052
TAGACTAA | -0.131
AGGAGATG | -0.0442

Sequence | PBM E-score
CGTTGATA | 0.133
GGGCCAAA | 0.159
GTTCCAGA | -0.317
ATTCAATC | 0.0541
CGATGGGA | 0.0948
GTGTCACA | -0.0573
CCAGGGAA | -0.364
TGGGTTAA | -0.0326
ACGTTACC | 0.15
ACACCTGG | -0.131
GAAGGTCC | 0.0808
GGTCAATA | -0.141
ATGGTTCG | 0.0239
GCGGATCA | 0.209
TCTCACCA | -0.0141
CATATGCC | 0.0372
ATTTGCCA | -0.279
AGATAACT | -0.0158
CCACAGCA | -0.107
ACCGCAAT | 0.239
CATCTTGC | 0.0273
AACACGCG | 0.00839
AGCGTAAA | -0.0072
ATGCTAAA | -0.137
CAAAAATC | -0.164

Sequence | PBM E-score
GGTGCGTA | -0.0181
AAAATTTG | -0.227
GGAGCACA | 0.00045
AGCGCTCC | -0.0137
ATGGTGTA | -0.15
CTGAGAGA | -0.256
ATCAGTGC | -0.212
GTAACCGA | 0.244
ATGAAGTG | -0.133
CGACAGGC | -0.076
ACGGGTAG | -0.0904
ACCTCCAG | -0.153
AAAAGCGT | -0.124
AAGCTATC | 0.122
ATGTACGA | 0.105
CAGGAACG | -0.155
GTAATTCA | -0.0294
GCCATGAC | -0.0836
AACTGTAC | -0.179
GTGAATCA | -0.146
AAATGTGT | -0.0775
AGACGTCT | -0.186
AGCGAATA | -0.0417
TCAATGCA | -0.31
CTGATGTA | -0.038

Sequence | PBM E-score
ACCTTGAG | -0.113
GGGTAAAC | -0.0245
GAACAGTA | -0.188
ACCAGGGT | -0.258
CAGAATGG | -0.0344
CCGGCCCC | 0.312
GTTATACA | -0.163
CACAGCTG | -0.194
CTCACGGC | 0.0364
ATTGTACC | 0.00536
GGTACCGA | 0.179
TACGCCGA | 0.301
AAATAGGG | -0.0374
GGCACTTA | -0.0691
CAGTTAGG | -0.258
AGTCTTAG | -0.278
AAATTTAC | -0.0134
GAAAAACC | 0.186
CTCGGTGC | 0.172
CGCACTGC | -0.116
ACGCAGGG | -0.134
AAGCGGGG | 0.0382
CGTTTAAG | 0.0983
AGCTCAGC | -0.175
AACCATCG | 0.176

Sequence | PBM E-score
TAGAGAGA | -0.214
CCCCAGGG | -0.234
AGAGATGG | -0.0221
ACAAATCA | -0.211
GTGATAAC | 0.0828
GGATCACA | 0.00535
CACCGCCA | -0.0785
CAATTGCC | -0.00336
GCGTCGCC | -0.0379
CGGTTCTA | 0.276
ATGCCCAC | -0.262
CTCCAACC | 0.082
CAAAAACG | -0.0605
CTCGAAAA | -0.155
CGGGGGCA | 0.116
CAACCAAG | -0.27
AGTAACAG | -0.132
GACGAATC | 0.0682
AGATACCC | 0.215
CGCTCATA | 0.0332
AAGCCCGG | 0.407
ACATGAGC | -0.15
GAACGATA | 0.0594
ACCTCTGG | -0.181
CAGACCCC | -0.129

Sequence | PBM E-score
AAACCCTA | -0.136
ATCCTACA | -0.222
CGCAAGGC | 0.142
CGGAGCAC | 0.196
ATCATGCG | -0.113
CGTAACAG | 0.0357
ACGGGGAG | -0.0069
ATTCAAAG | -0.213
CGCGGGTC | 0.284
CAACGACA | -0.121
CCTTAGTA | -0.114
AACTCCGC | 0.389
CAGACCTA | -0.284
AGTTCGAG | -0.119
AAATTCAC | 0.0387
GATAAATA | 0.144
GGCTAAAC | 0.00914
TGGTTGAA | -0.143
ATGATCCC | 0.0807
CACCGAAG | 0.245
AACGTCAC | -0.242
GGGCGCAA | -0.0038
GGATTATA | 0.24
CTCTGCAA | -0.124
ATTCCTAA | -0.0333

Sequence | PBM E-score
GCGACTCC | -0.196
TGTCATAA | -0.281
GATCAAAA | -0.107
AAACGAAG | -0.0629
CGACGTTC | -0.0677
GTGCGCCA | -0.0846
GTAAAAAA | 0.0671
TGGCTAAA | -0.0452
AACTCTTG | -0.302
AGTCTGGG | -0.293
AACACGGC | 0.104
AGCAATGC | -0.0854
AGTCGATA | -0.0174
AGATGGGA | -0.129
AGACAGAT | -0.15
ATAAGGCC | 0.196
CACTAATG | -0.124
ACCAGTCT | -0.315
GTGACGCA | -0.127
AAGTATAC | -0.111
ACGTCTGG | -0.202
ACTCCCCC | 0.029
ACTTGAAC | -0.0526
ACCGGTTG | 0.245
CGTCTCTC | 0.0635

Sequence | PBM E-score
ACTCTTCA | -0.163
GTCGAATA | -0.0336
CATAATGG | -0.101
ATACGCTA | 0.058
AGACGGAG | 0.161
GATATGAA | -0.0256
CACAGCGA | -0.00276
CCGTTACC | 0.258
ATCTTAGA | 0.066
ATTATGTA | 0.033
GACTACAA | -0.183
ACGAGCGA | -0.259
ATCTCGAC | -0.0457
CGCAGATA | 0.202
CAGGAGGA | -0.135
GAATGGCA | 0.111
GTATCTAA | 0.00297
AGGCAGTA | -0.347
TAACGAAA | -0.0382
GAACATAC | 0.125
ACAAAAAC | -0.0594
GGCAACAC | -0.0557
TCCGTACA | 0.267
AGTCGTTA | -0.192
ACGGTGTA | 0.0706

Sequence | PBM E-score
CGTCCCCC | 0.0215
ATAATCGG | 0.274
CCTTGTTA | -0.191
ATACCATC | -0.0305
ATCTGATG | -0.241
GCGGAAAC | 0.24
ACAGTGCG | -0.131
GAGCGATA | 0.242
ACTCCTCG | -0.0163
AAGAATAT | -0.00079
GCGCACAA | -0.0213
CTAGTTGC | -0.0278
TCTACAAA | -0.269
AATGTAGT | -0.112
ACTTGAGA | -0.185
AACATGTA | -0.0249
AATCTTAT | -0.0635
ACTTTCCG | 0.285
AGCAATAC | -0.0164
